Reference: PubChem BioAssay AID588855 (National Center for Advancing Translational Sciences (NCATS), 2011)
In all, about 410,000 compounds went through this assay and about 5,000 (1.2%) were called active. The shares of active, inactive and inconclusive entries below differ from those in the screen. The call rests on the fitted dose curve; in most records, active means well fitted inhibition curve with a large enough effect; inconclusive means small, poorly fitted or top-dose-only effect; inactive means no such curve, though single readings can be large or run the other way. Where the call is inconclusive, the potency comes from a doubtful curve fit.

Assay: qHTS for Inhibitors of TGF-b; further: nearly all actives have a fitted effect of over 65% in size
Conditions: HepG2 CAGA-GFP TGF-b/SMAD3 reporter, GFP fluorescence, 18 h, TGF-beta stimulated, 500 pg/mL final; series mostly up to 46.1 µM
Method in brief: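 HEPG2 CAGA-GFP cells (1000/well, DMEM with 1% FBS) were pre-incubated 2 h at 37 degrees C, given compound by pin tool, then stimulated with TGF-beta at 500 pg/mL final for 18 h before per-cell GFP fluorescence imaging.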
Potency means the concentration at half of the fitted maximal effect; tags describe the fitted curve by direction and shape.

| Compound | Potency |
| --- | --- |
| C(=C\c1ccccc1)/CN1CCN(C(c2nnnn2C2CCCCC2)C2CC2)CC1 (stereo unspecified) | inconclusive: 35.5 µM [inhibitor, partial curve, poor fit] |
| Cc1ccc(C)c(OCc2ccc(C(=O)Nc3ccc([N+](=O)[O-])cn3)o2)c1 | inconclusive: 4.47 µM [inhibitor, full curve, poor fit] |
| COc1c2ccoc2c(OC[C@@H](O)C(C)(C)OC)c2oc(=O)ccc12 | inconclusive: 20 µM [inhibitor, single point] |
| O=C(C#Cc1ccccc1)NCc1ccccc1F | inconclusive: 35.5 µM [inhibitor, single point] |
| CCOc1ccccc1N(C)C(=O)c1nn(-c2ccc(C)cc2)c(=O)c2c1c1ccccc1n2C | inactive |
| Cc1ccc(NC(=S)NC(=O)C2CC2)cc1Cl | inconclusive: 1.41 µM [inhibitor, full curve, poor fit] |
| CCOC(=O)c1cnn(-c2ccccc2)c1-n1cccc1C(=O)C(=O)Nc1ccccc1C(F)(F)F | inactive |
| CCOc1cc(CNc2ccc(O)cc2)cc(Br)c1OCc1ccccc1 | inconclusive: 11.2 µM [inhibitor, partial curve, poor fit] |
| COc1ccc(C(C)(C)NC(=O)C2CCC(=O)N(C3CCCC3)C2)cc1OC (stereo unspecified) | inactive |
| c1ccc(Cn2c(CNc3nc4ccccc4n3CCN3CCCCC3)nc3ccccc32)cc1 | inconclusive: 22.4 µM [inhibitor, single point] |
| CC(C)C(OC(=O)c1cc2c(s1)CCCCC2)C(=O)NC(N)=O (stereo unspecified) | inconclusive: 20 µM [inhibitor, single point] |
| CN(C)CCCN(C(=O)/C=C/c1cccs1)c1nc2c(F)cccc2s1 | active: 17.8 µM |
| CC(C)C1C(=O)N(Cc2cn(CCC3OCCO3)nn2)CCS(=O)(=O)N1Cc1ccc(-c2ccc(Cl)cc2)cc1 (stereo unspecified) | inconclusive: 25.1 µM [inhibitor, partial curve, poor fit] |
| Cc1ccc(S(=O)(=O)NCCc2cc3ccc(C)c(C)c3[nH]c2=O)cc1 | inactive |
| O=C(Nc1cccc(F)c1)c1cccnc1N1CCOCC1 | inconclusive: 11.2 µM [inhibitor, partial curve] |
| Cn1cnc([N+](=O)[O-])c1S(=O)(=O)Nc1ccccc1 | inactive |
| N#CCCN(Cc1ccccc1)C(C(=O)NC1CCCCC1)c1cc2ccccc2o1 (stereo unspecified) | active: 12.6 µM |
| CN(C(=O)c1ccc(S(=O)(=O)N2CCCCC2)cc1)C1CCS(=O)(=O)C1 (stereo unspecified) | inactive |
| CCOc1ccc(NC(=S)NNC(=O)CC(C)O)cc1 (stereo unspecified) | inactive |
| O=[N+]([O-])c1ccccc1CN1CCN(Cc2ccc3ccccc3c2)CC1 | inconclusive: 15.8 µM [inhibitor, single point] |
| Cc1ccc(OCCn2c(-c3ccc(Cl)cc3)nc3ccccc3c2=O)c(C)c1 | inactive |
| CC1(C)CC(=Cc2cc(O)ccc2[N+](=O)[O-])C(=O)c2ccccc21 | inconclusive: 35.5 µM [inhibitor, single point] |
| CC(=O)Nc1ccc(C(=O)CSc2nnc(-c3ccccc3)n2-c2ccccc2)cc1 | inactive |
| Cc1ccc(-c2cc(C(=O)NCc3cnn(C)c3C)c3cc(Br)ccc3n2)cc1 | inconclusive: 12.6 µM [inhibitor, single point] |

| Compound | Potency |
| --- | --- |
| Cc1ccc(S(=O)(=O)c2nc(-c3ccccc3F)oc2N2CCCCC2)cc1 | inconclusive: 6.31 µM [inhibitor, full curve, poor fit] |
| Cc1ccc(NC(=O)c2cc(C(C)(C)C)nn2Cc2ccccc2)cc1 | inconclusive: 25.1 µM [inhibitor, partial curve, poor fit] |
| Cn1nnnc1Sc1ncnc2scc(Br)c12 | active: 2.24 µM |
| CCN(CC)c1ccc(NC(=O)C(C)C)cc1 | inconclusive: 28.2 µM [inhibitor, single point] |
| Cc1ccc(Nc2nc(N)nc(CN3CCN(c4ccccc4F)CC3)n2)cc1 | inconclusive: 14.1 µM [inhibitor, single point] |
| COc1ccc(NS(=O)(=O)c2ccc3oc4ccccc4c3c2)cn1 | inconclusive: 17.8 µM [inhibitor, partial curve, poor fit] |
| CC(=O)Nc1sc(/C(C#N)=C\c2cccc(Cl)c2)nc1-c1ccc(C)cc1 | inactive |
| CCN(Cc1ccccc1)S(=O)(=O)c1ccc(C(=O)N(CCCN(C)C)c2nc3cc4c(cc3s2)OCCO4)cc1 | inconclusive: 25.1 µM [inhibitor, single point] |
| c1ccc2nccnc2c1 | active: 2.82 µM |
| O=C(NCc1cccc(Cl)c1)c1cc2c(s1)-c1ccccc1OC2 | inconclusive: 35.5 µM [inhibitor, single point] |
| COC(=O)c1ccc2nc3c(cc2c1)[C@@H]1CCN2C(=O)CCC[C@H](C3)[C@H]12 | inconclusive: 5.62 µM [inhibitor, single point] |
| CCN1CCN(C(=O)c2cc3c(=O)n(C)c4ccccc4c3n2C)CC1 | inactive |
| O=C(NC1CCCC1)C(c1ccccn1)N(Cc1ccc(F)cc1)C(=O)c1csnn1 (stereo unspecified) | inactive |
| N#CCc1ccc(NC(=O)/C=C/c2ccc([N+](=O)[O-])o2)cc1 | active: 7.08 µM |
| COc1ccccc1C(=O)NCC(=O)NCCCN1CCOCC1 | inactive |
| Cc1ccccc1NC(=O)c1ccc(CN2CCC(Cc3ccccc3)CC2)cc1 | inactive |
| S=C(N/N=C/c1cccc2ccccc12)Nc1cccc(Cl)c1 | inconclusive: 10 µM [inhibitor, partial curve] |
| COc1ccc(OC)c(/C=C2\SC(=S)N(Cc3cccnc3)C2=O)c1 | inconclusive: 6.31 µM [inhibitor, single point] |
| Cn1cnnc1SCc1ccc(C(=O)N=Nc2c(O)n(Cc3ccc(Cl)cc3)c3ccccc23)cc1 | inconclusive: 3.16 µM [inhibitor, full curve] |
| O=C1NCCNC1c1ccccc1 (stereo unspecified) | inactive |
| CSc1ccccc1OCc1cc(C(=O)N2CCc3c(Cl)cccc3C2)no1 | inconclusive: 35.5 µM [inhibitor, single point] |
| Cc1cc(=O)[nH]c2nnc(SCC(=O)NC(C)(C)C)n12 | inactive |
| CC(C)(C)c1nc(N2CCN(C(=O)c3ccco3)CC2)c2nnn(Cc3ccccc3)c2n1 | inconclusive: 35.5 µM [inhibitor, single point] |
| Cn1c(Cc2csc(N)n2)nnc1SCC(=O)NC1CCCCC1 | inactive |

| Compound | Potency |
| --- | --- |
| CCN(CC)S(=O)(=O)c1ccc(OC)c(NC(=O)c2cc([N+](=O)[O-])ccc2N2CCOCC2)c1 | inactive |
| CC(=O)Nc1cc(C(=O)N2CCc3ccccc3C2)ccc1Sc1ccc(F)cc1 | inconclusive: 35.5 µM [inhibitor, single point] |
| O=C(Cn1cnc2c(cnn2-c2ccccc2)c1=O)Nc1cc(S(=O)(=O)N2CCOCC2)ccc1Cl | inactive |
| O=C(CN1C(=O)COc2ccc(S(=O)(=O)N3CCCCCC3)cc21)NCc1ccc(Cl)cc1 | active: 10 µM |
| CCSc1nsc(NC(=O)Nc2ccc(F)cc2F)n1 | inconclusive: 25.1 µM [inhibitor, single point] |
| CCOC(=O)N1CCN(C(=O)c2noc(C(C)C)c2[N+](=O)[O-])CC1 | inactive |
| CCn1c(/C=C/c2cc(Br)ccc2O)nc2ccccc2c1=O | active: 10 µM |
| CCCCN1C(=O)C(CC(=O)NC2CCCCC2)CC(C(=O)N(C)C)=C1C (stereo unspecified) | inactive |
| Cc1cc(-c2nn(-c3ccccc3)cc2/C=C2\SC(N)=NC2=O)ccc1OC(C)C | inconclusive: 6.31 µM [inhibitor, single point] |
| CC(=O)CC(c1ccccc1)S(=O)(=O)c1ccc([N+](=O)[O-])cc1 (stereo unspecified) | inactive |
| NC(=S)N/N=C/c1ccc(C23CC4CC(CC(C4)C2)C3)cc1 | inactive |
| CCCCCCCCCCCCCCCC[N+](C)(C)CCN(Cc1ccc(OC)cc1)c1ncccn1 | inconclusive: 35.5 µM [inhibitor, single point] |
| COc1ccc2nc(NC(=S)NC(=O)c3ccco3)sc2c1 | inactive |
| Fc1ccc(-c2nc(Nc3ccc(F)c(Cl)c3)nc3c2COc2ccccc2-3)cc1 | inactive |
| CCN1C(=O)[C@H]2[C@@H](c3ccc(C)cc3)N3C(=O)N(c4ccc(C)cc4)C(=O)[C@@]3(C)[C@H]2C1=O | inconclusive: 0.126 µM [inhibitor, full curve, poor fit] |
| O=C(Nc1nnc(-c2ccc(F)cc2)s1)Nc1ccccc1F | inactive |
| CC1=C(C(=O)Nc2ccc(C)cc2C)C(c2ccccc2[N+](=O)[O-])n2ncc(C(=O)Nc3ccccc3)c2N1 (stereo unspecified) | inconclusive: 11.2 µM [inhibitor, partial curve, poor fit] |
| COc1ccc(C2CC(c3cccs3)=NN2C(=O)c2ccc(Br)o2)cc1 (stereo unspecified) | inconclusive: 22.4 µM [inhibitor, single point] |
| O=C(CSc1ccccn1)Nc1nc2c(ccc3ccccc32)s1 | inconclusive: 35.5 µM [inhibitor, single point] |
| CC(C)Oc1c(Br)cc(Br)cc1/C=N/NC(N)=S | inconclusive: 22.4 µM [inhibitor, single point] |
| O=C(CN1CCN(S(=O)(=O)c2cc(Cl)ccc2Cl)CC1)Nc1cccc(F)c1 | inconclusive: 14.1 µM [inhibitor, single point] |
| Cn1cc(S(=O)(=O)c2ccc(Cl)cc2)c(=O)c2cc(F)c(N3CCCCCC3)cc21 | inconclusive: 6.31 µM [inhibitor, single point] |
| Cc1ccc2c(c1)N(C(=O)CCC(=O)NCc1cccc(Br)c1)CC(C)O2 (stereo unspecified) | inconclusive: 35.5 µM [inhibitor, single point] |
